From the antibiotic and cytotoxicity screens of Wong et al. (2023) come the findings set out here.

This is one part of the list.

The test relates to S. aureus RN4220. As to the kind of experiment: growth inhibition call (relative growth <= 0.2). The settings on record: 50 µM.
With `Cc1ccc(S(=O)(=O)Nc2ccc3c(c2)C(=O)N([C@H](C)CO)C[C@@H](C)[C@H](CN(C)C(=O)Nc2ccc(C(F)(F)F)cc2)O3)cc1`, the growth inhibition call is “inactive”.
Regarding `COc1ccc2c3c([nH]c2c1)[C@H](CO)N(C[C@]13CN(C1)S(=O)(=O)c1cn(cn1)C)C(=O)Nc1ccc(cc1)F`, the growth inhibition call was “inactive”.
With `CN1C[C@@H](O)COC[C@@H]2O[C@H](CC(=O)N3CCN(c4ccccc4)CC3)CC[C@H]21`, the growth inhibition call was “inactive”.
Turning to `C[C@H](CO)N1C[C@H](C)[C@@H](CN(C)C(=O)Nc2ccccc2)Oc2ccc(NS(C)(=O)=O)cc2C1=O`, the growth inhibition call is “inactive”.
The result for `C[C@H](CO)N1C[C@H](C)[C@@H](CN(C)S(=O)(=O)c2ccc(Cl)cc2)Oc2ccc(NC(=O)c3ccncc3)cc2CC1=O` reads “inactive”.
The result for `Cn1c(=O)c2cn3ncccc3c2n(C)c1=O` reads “inactive”; that for `C[C@@H]1CN([C@@H](C)CO)C(=O)c2cccc(NC(=O)C3CCCCC3)c2O[C@@H]1CN(C)Cc1ccc(C(=O)Nc2ccccc2N)cc1`, “inactive”; that for `C[C@@H]1CN([C@H](C)CO)C(=O)c2cc(NC(=O)NC3CCCCC3)ccc2O[C@@H](C)CCCCO[C@H]1CN(C)C(=O)NC1CCCCC1`, “inactive”.
The result for `CSCC[C@@H](N)C(=O)O` reads “inactive”; that for `CNC(=O)[C@H]1O[C@H](n2cnc3c(NCc4cccc(I)c4)ncnc32)[C@@H](O)[C@@H]1O`, “inactive”; that for `C[C@H](CO)N1C[C@H](C)[C@H](CN(C)C(=O)c2ccccc2)OCCCC[C@H](C)Oc2ccc(NC(=O)Nc3ccc(F)cc3)cc2C1=O`, “inactive”.
For the compound `C[C@@H]1CCCCO[C@H](CN(C)Cc2ccccc2)[C@@H](C)CN([C@H](C)CO)C(=O)c2cc(NC(=O)C3CCCCC3)ccc2O1`, the growth inhibition call is “inactive”.
Regarding `CC(C)NC(=O)N(C)C[C@@H]1OCc2cn(nn2)CCCC(=O)N([C@@H](C)CO)C[C@@H]1C`, the growth inhibition call is “inactive”.
As to `C[C@H]1CCCCO[C@@H](CN(C)Cc2ccncc2)[C@@H](C)CN([C@@H](C)CO)C(=O)c2cc(NC(=O)Nc3cccc4ccccc34)ccc2O1`, the growth inhibition call was “inactive”.
On to `Cc1cc(N)no1`, for which the growth inhibition call is “inactive”.
The result for `C[C@@H]1CN([C@H](C)CO)C(=O)c2cc(NS(=O)(=O)c3cn(C)cn3)ccc2O[C@H]1CN(C)S(=O)(=O)c1cccs1` reads “inactive”; that for `C[C@H](CO)N1C[C@H](C)[C@H](CN(C)Cc2ccc(C(=O)O)cc2)OCCCC[C@H](C)Oc2ccc(NC(=O)NC3CCCCC3)cc2C1=O`, “inactive”; that for `C[C@H]1CN([C@@H](C)CO)C(=O)c2cccc(NC(=O)c3cnccn3)c2O[C@@H]1CN(C)S(=O)(=O)c1ccc(F)cc1`, “inactive”.
Regarding `C[C@H]1CN([C@@H](C)CO)C(=O)c2cccc(NC(=O)c3ccc(-c4nccs4)cc3)c2O[C@@H]1CN(C)Cc1ccc(C(=O)Nc2ccccc2N)cc1`, the growth inhibition call is “inactive”.
The result for `C=CC1(C)CC(=O)C2(O)C(C)(O1)C(OC(C)=O)C(O)C1C(C)(C)CCC(O)C12C` (stereo not given) reads “inactive”.
The value for `Cc1cc(-c2ccccc2)nc(-c2ccccc2)c1C` was “inactive”; that for `CCN(CC)c1ncc(C#N)c(N)n1` was “inactive”.
The result for `C[C@H](CO)N1C[C@H](C)[C@H](CN(C)C(=O)Nc2ccc(F)cc2)Oc2ccc(NC(=O)Cn3cnnn3)cc2C1=O` reads “inactive”.
Turning to `Cc1ccc(S(=O)(=O)N(C)C[C@H]2OCCCC[C@H](C)Oc3ccc(NS(=O)(=O)c4ccc(Cl)cc4)cc3C(=O)N([C@H](C)CO)C[C@@H]2C)cc1`, the growth inhibition call was “inactive”.
`C[C@H](CO)N1C[C@H](C)[C@H](CN(C)C(=O)Nc2ccc(C(F)(F)F)cc2)Oc2ccc(NC(=O)Cc3ccccc3)cc2C1=O`: the growth inhibition call is “inactive”.
As to `C[C@@H]1CCCCO[C@H](CN(C)Cc2ccc(C(=O)O)cc2)[C@H](C)CN([C@@H](C)CO)C(=O)c2cc(NS(=O)(=O)c3ccc(F)cc3)ccc2O1`, the growth inhibition call was “inactive”.
Regarding `CC(C)NC(=O)Nc1cccc2c1O[C@@H](CN(C)S(=O)(=O)c1ccc(F)cc1)[C@@H](C)CN([C@@H](C)CO)C2=O`, the growth inhibition call is “inactive”.
The value for `COc1ccc(S(=O)(=O)N2C[C@H](O)COC[C@@H]3O[C@@H](CC(=O)NCCCN(C)C)CC[C@H]32)cc1` was “inactive”.
The result for `O=C(C[C@H]1CC[C@H]2[C@@H](COC[C@@H](O)CN2S(=O)(=O)c2ccccc2Cl)O1)NCCc1ccncc1` reads “inactive”.
The value for `O=S(=O)(NCCN(C/C=C/c1ccc(F)cc1)C/C=C/c1ccc(F)cc1)c1cccc2cnccc12` was “inactive”; that for `CCCCCCC#C[Si](O[C@H](c1ccccc1)c1cn([C@H](CO)Cc2ccccc2)nn1)(C(C)C)C(C)C` was “inactive”; that for `Cc1noc(C)c1NC(=O)N(C)C[C@H]1Oc2ccc(NC(=O)CCN3CCOCC3)cc2CC(=O)N([C@H](C)CO)C[C@@H]1C` was “inactive”.
For the compound `C[C@H](CO)N1C[C@H](C)[C@H](CN(C)C(=O)C2CC2)Oc2cc(-c3ccc(C(=O)N(C)C)cc3)ccc2S1(=O)=O`, the growth inhibition call was “inactive”.
Take `C/C=C/c1ccc2c(c1)O[C@H](CN(C)Cc1ccc(C(=O)O)cc1)[C@H](C)CN([C@@H](C)CO)S2(=O)=O`: the growth inhibition call was “inactive”.
As to `C[C@@H]1CCCCO[C@@H](CN(C)C(=O)CCC(F)(F)F)[C@H](C)CN([C@@H](C)CO)C(=O)c2cc(NC(=O)CCC(F)(F)F)ccc2O1`, the growth inhibition call is “inactive”.
For `COc1ccc2c(c1)c(CC(=O)O)c(C)n2C(=O)c1ccc(Cl)cc1`, the growth inhibition call was “inactive”.
The result for `C[C@H]1CN([C@@H](C)CO)C(=O)c2cccc(NC(=O)Nc3ccccc3)c2O[C@H]1CN(C)C(=O)Nc1cccc2ccccc12` reads “inactive”; that for `Cc1noc(C)c1NC(=O)Nc1ccc2c(c1)CC(=O)N([C@@H](C)CO)C[C@H](C)[C@H](CN(C)S(=O)(=O)c1cn(C)cn1)O2`, “inactive”; that for `C[C@H]1CN([C@@H](C)CO)C(=O)c2c(c3ccccc3n2C)-c2ccccc2CO[C@H]1CN(C)Cc1ccc(Cl)c(Cl)c1`, “inactive”.
The value for `Cc1ccc(S(=O)(=O)N(C)C[C@@H]2Oc3c(NC(=O)Nc4cccc5ccccc45)cccc3C(=O)N([C@@H](C)CO)C[C@H]2C)cc1` was “inactive”.
